Experimental data taken from article PMC4336329 (PLoS ONE, 2015).
Out of some 310,000 compounds screened, about 2,200 (0.71%) showed an effect of 50% or more. The effect is printed as a negative number. This is one part of the list.

molecular target: human ether-à-go-go-related gene (hERG) potassium channel (human, UniProt Q12809); test: primary screen, population patch clamp on CHO cells stably expressing hERG
Sequence (Q12809 whole entry, looked up): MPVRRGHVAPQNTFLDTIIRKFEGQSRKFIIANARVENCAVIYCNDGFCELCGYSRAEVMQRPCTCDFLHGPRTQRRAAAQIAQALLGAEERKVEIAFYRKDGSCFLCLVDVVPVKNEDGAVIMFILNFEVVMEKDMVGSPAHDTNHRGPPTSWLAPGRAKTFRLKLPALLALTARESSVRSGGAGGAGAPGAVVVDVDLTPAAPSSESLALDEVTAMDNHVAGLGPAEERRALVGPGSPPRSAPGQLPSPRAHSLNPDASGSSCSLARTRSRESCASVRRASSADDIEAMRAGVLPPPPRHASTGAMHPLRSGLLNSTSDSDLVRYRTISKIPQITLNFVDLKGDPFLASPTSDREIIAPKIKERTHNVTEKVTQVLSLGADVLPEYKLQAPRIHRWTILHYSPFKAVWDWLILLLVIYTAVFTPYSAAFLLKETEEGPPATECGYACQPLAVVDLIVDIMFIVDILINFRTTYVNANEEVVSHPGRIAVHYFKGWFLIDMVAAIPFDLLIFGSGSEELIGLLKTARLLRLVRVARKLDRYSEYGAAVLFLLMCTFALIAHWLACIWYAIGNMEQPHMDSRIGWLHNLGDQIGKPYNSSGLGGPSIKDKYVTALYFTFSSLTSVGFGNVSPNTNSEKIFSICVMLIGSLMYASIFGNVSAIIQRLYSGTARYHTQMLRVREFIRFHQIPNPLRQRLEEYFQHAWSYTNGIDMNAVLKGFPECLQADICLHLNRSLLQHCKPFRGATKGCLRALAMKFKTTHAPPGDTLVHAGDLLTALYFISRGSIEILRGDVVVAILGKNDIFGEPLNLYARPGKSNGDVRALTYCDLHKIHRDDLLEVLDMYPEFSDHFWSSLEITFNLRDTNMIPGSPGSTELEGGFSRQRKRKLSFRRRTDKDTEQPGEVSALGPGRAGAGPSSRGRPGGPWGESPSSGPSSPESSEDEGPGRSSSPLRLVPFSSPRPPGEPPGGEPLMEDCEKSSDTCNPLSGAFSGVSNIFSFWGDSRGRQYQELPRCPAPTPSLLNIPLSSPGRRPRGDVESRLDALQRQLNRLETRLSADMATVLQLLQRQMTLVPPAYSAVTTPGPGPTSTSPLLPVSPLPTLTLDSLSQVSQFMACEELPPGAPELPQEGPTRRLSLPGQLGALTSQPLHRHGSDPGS

Row | Structure (SMILES) | hERG current change (%, negative = inhibition) at 1uM [%]
1 | Cc1ccccc1NC(=O)COC(=O)c1cccc(S(=O)(=O)N2CCCCC2)c1 | 0.757
2 | Cn1ccnc1C(=O)c1cc(SCC(=O)N2CCOCC2)nc2ccccc12 | 10.8
3 | CCOC(=O)[C@H]1[C@H]2COc3ccc(OC)cc3[C@@H]2N2C(=O)CN(Cc3ccco3)C(=O)[C@@]12C | 15
4 | Cc1ccsc1/C=N/NC(=O)CNC(=O)c1ccc(S(=O)(=O)N2CCOCC2)cc1 | 5.79
5 | O=S(=O)(c1ccc(Br)cc1)N1CCCC1c1nc2ccccc2s1 (stereo not drawn) | 1.59
6 | N#C/C(=C(/O)COC(=O)CCC1CCCCC1)c1nc2ccccc2[nH]1 | 10.2
7 | CCCc1cc(=O)oc2c(C)c(OCc3nn[nH]n3)ccc12 | 11.2
8 | O=C1C=C(c2ccc(Cl)c(C(F)(F)F)c2)C[C@@H](c2ccc(Cl)cc2)C1 | 7.33
9 | CSc1ncc(C(=O)Nc2ccccc2F)c(-c2ccccc2)n1 | 10.2
10 | Cc1ccccc1CS(=O)(=O)Cc1ccc(C(=O)NCC2CCCO2)o1 (stereo not drawn) | 0.816
11 | Cc1cc(CNC(=O)C2(C(F)(F)F)C/C(=C\Cc3ccccc3)CCCO2)nn1C (stereo not drawn) | 21.2
12 | Cc1ccc(C(=O)NC2CCCCCCC2)c(Cl)c1 | 12.1
13 | O=C1CN(C(=O)COC(=O)C2=COCCO2)c2ccccc2N1 | 0.237
14 | COc1ccc(NC(=O)CN(c2ccc(C)cc2)S(=O)(=O)c2c(C)nn(C)c2C)cc1 | 8.63
15 | Cc1cccn2c1nc(=S)n2C(=O)c1ccco1 | 11.6
16 | NS(=O)(=O)c1ccc(NC(=O)c2cc(-c3ccccc3O)n[nH]2)cc1 | 10.6
17 | CC(=O)NCC(=O)OCC(=O)c1ccc(C)c(C)c1 | 4.73
18 | CCOc1ccc(-n2c(SCc3ccc([N+](=O)[O-])cc3)nnc2-c2ccc(OC)cc2)cc1 | 10.7
19 | O=C(NCCN1CCOCC1)c1cc2cc(Br)ccc2oc1=O | 0.63

Row | Structure (SMILES) | hERG current change (%, negative = inhibition) at 1uM [%]
20 | CCC(C(=O)O)n1nc(-c2ccccc2)c2cc(Cl)ccc21 (stereo not drawn) | 3.89
21 | COc1ccc(-c2nc(C=O)cs2)cc1 | 2.62
22 | CCOc1ncccc1C(=O)OCC(=O)Nc1cccc(C(C)=O)c1 | -9.55
23 | CC1(c2ccc(Cl)cc2)NC(=S)N2C1NC(=S)N2c1ccccc1 (stereo not drawn) | 3.14
24 | Cc1ccc(-c2nnn(CCC(=O)Nc3ccc4c(c3)OCO4)n2)cc1 | 1.6
25 | COc1ccc(Nc2nc(C)nc3sc4c(c23)CCC4)cc1O | 7.97
26 | CCCCCc1ccc(-c2cn(CN3C(=O)c4ccccc4C3=O)nn2)cc1 | -1.84
27 | Cc1[nH]c2ccc(C(=O)NCCCN(C)C3CCCCC3)cc2c1C | -0.909
28 | O=C(Nc1ccc2c(c1)OC1(CCCC1)O2)C1CC1 | 13.4
29 | COc1ccccc1CC(=O)Nc1ccc2[nH]ncc2c1 | -0.0473
30 | NC(=O)c1cccc(CC(=O)c2ccccc2)c1 | 12.4
31 | NC(=O)CSc1nnc(CSc2ncccn2)n1-c1ccccc1 | 5.45
32 | CCOC(=O)N1CCN(S(=O)(=O)c2ccc(C(=O)Nc3sc4c(c3C#N)CC(C)(C)NC4(C)C)cc2)CC1 | 12.1
33 | Cc1ccc(C)c(N(C(=O)CNC(=O)c2ccco2)C(C(=O)NC2CCCC2)c2ccncc2)c1 (stereo not drawn) | 13.4
34 | Cc1ccccc1OC(C)C(=O)NC1CCCC1 (stereo not drawn) | 6.92
35 | COC(=O)C1=C(C)N(Cc2ccco2)C(=O)N[C@@H]1c1ccccc1 | 7.03
36 | CSc1cccc(NC(=O)c2cc(S(=O)(=O)N3CCCC3)cn2C)c1 | 9.64
37 | O=C(CN1C(=O)CSc2ccc(S(=O)(=O)N3CCOCC3)cc21)NCc1ccc(Cl)cc1 | 1.17
38 | CN(CCC#N)C(=O)CSc1nc2scc(-c3ccccc3)c2c(=O)[nH]1 | 0.162

Row | Structure (SMILES) | hERG current change (%, negative = inhibition) at 1uM [%]
39 | Cc1cc(NC(=O)c2c(C)noc2C)no1 | 14.5
40 | COC(=O)c1c(NC(C)=O)sc(C(=O)N2CCOCC2)c1C | 15.4
41 | COc1cccc(C(=O)NC(=S)Nc2ccccc2N2CCCCC2)c1 | 19.2
42 | COc1ccc(CCNC(=S)Nc2cccc3ccccc23)cc1 | 10.6
43 | Cn1c(=O)c2c(SCC(=O)NCc3ccco3)nc(CC(C)(C)C)nc2n(C)c1=O | -25.3
44 | CCOC(=O)CC(=O)CSc1nc(N)c(C#N)c(-c2ccc(Cl)cc2)c1C#N | 11.8
45 | O=C(CSc1nncn1-c1ccccc1)Nc1c(F)cccc1F | 3.79
46 | CSc1ncnc2sc(C)c(C)c12 | 13.4
47 | O=C(O)c1[nH]c2ccccc2c1C(c1cc(Br)ccc1O)c1c(C(=O)O)[nH]c2ccccc12 | 15.8
48 | Cc1ccc(C)c(S(=O)(=O)Nc2ccc(C(=O)NCC(c3ccco3)N(C)C)cc2)c1 (stereo not drawn) | 1.68
49 | Cc1ccc(-n2c(=O)c3sccc3n(CC(=O)NCc3ccco3)c2=O)cc1F | 16.4
50 | Cc1ccc(NC(=O)CCNS(=O)(=O)c2cc(Br)cnc2N)c(Cl)c1 | 1.87
51 | S=C(NCCCCc1ccccc1)NCc1ccccc1 | 16
52 | O=c1[nH]c(N/N=C\c2ccc(F)cc2)nc2ccccc12 | 3.46
53 | O=C(CC(=O)N/N=C\c1cccc(Cl)c1Cl)NCc1ccccc1 | 14.7
54 | O=C(O)CC(C(=O)Nc1cccc(C(F)(F)F)c1)C1CCCO1 (stereo not drawn) | 6.05
55 | Cc1ccccc1CNC(=O)C1CCC(=O)N(Cc2cccc(F)c2)C1 (stereo not drawn) | 18.6
56 | Cc1[nH]oc(=O)c1N=Nc1ccccc1 | 5.01
57 | Cc1cc(C)n(-c2nncn2NC(=O)c2ccc(Cl)cc2O)n1 | 11
